Measured values from the supplement of paper PMC8728848.
Some of the results follow.

Columns and labels:
Test in all cases: glycan array binding signal (z-score within array); higher = stronger binding
Conditions in all cases: glycan notation: IUPAC condensed, linker removed; mutation: K348A
Gal(b1-2)Gal = biological target: Gal(b1-2)Gal
Procedure, shortened: (§1)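 Glycan array data were curated from 3228 arrays in the Consortium for Functional Glycomics database and kept only where the protein sequence was available. Glycan names were converted to IUPAC-condensed notation, and columns mapping to the same glycan were averaged. The binding signal is a within-array Z-score, averaged across arrays of the same protein sequence at different concentrations or buffers and across linkers. Negative Z-scores can be read as non-binding.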

Gal(b1-3)Gal = biological target: Gal(b1-3)Gal
Procedure, shortened: as §1

Gal(b1-3)Gal(b1-4)GlcNAc = biological target: Gal(b1-3)Gal(b1-4)GlcNAc
Procedure, shortened: as §1

Gal(b1-3)GalNAc = biological target: Gal(b1-3)GalNAc
Procedure, shortened: as §1

[1] = biological target: Gal(b1-3)GalNAc(b1-3)Gal(a1-4)Gal(b1-4)Glc
Procedure, shortened: as §1

[2] = biological target: Gal(b1-3)GalNAc(b1-4)Gal(b1-4)Glc
Procedure, shortened: as §1

[3] = biological target: Gal(b1-3)GalNAc(b1-4)[Neu5Ac(a2-3)]Gal(b1-4)Glc
Procedure, shortened: as §1

Gal(b1-3)GlcNAc = biological target: Gal(b1-3)GlcNAc
Procedure, shortened: as §1

[4] = biological target: Gal(b1-3)GlcNAc(b1-2)Man(a1-3)[Gal(b1-3)GlcNAc(b1-2)Man(a1-6)]Man(b1-4)GlcNAc(b1-4)GlcNAc
Procedure, shortened: as §1

[5] = biological target: Gal(b1-3)GlcNAc(b1-3)Gal(b1-3)GlcNAc
Procedure, shortened: as §1

[6] = biological target: Gal(b1-3)GlcNAc(b1-3)Gal(b1-4)Glc
Procedure, shortened: as §1

[7] = biological target: Gal(b1-3)GlcNAc(b1-3)Gal(b1-4)GlcNAc
Procedure, shortened: as §1

[8] = biological target: Gal(b1-3)[Fuc(a1-4)]GlcNAc
Procedure, shortened: as §1

[9] = biological target: Gal(b1-3)[Fuc(a1-4)]GlcNAc(b1-3)Gal(b1-3)[Fuc(a1-4)]GlcNAc
Procedure, shortened: as §1

[10] = biological target: Gal(b1-3)[Fuc(a1-4)]GlcNAc(b1-3)Gal(b1-4)GlcNAc
Procedure, shortened: as §1

[11] = biological target: Gal(b1-3)[Fuc(a1-4)]GlcNAc(b1-3)Gal(b1-4)[Fuc(a1-3)]GlcNAc
Procedure, shortened: as §1

[12] = biological target: Gal(b1-3)[GlcNAc(b1-6)]GalNAc
Procedure, shortened: as §1

[13] = biological target: Gal(b1-3)[Neu5Ac(a2-6)]GalNAc
Procedure, shortened: as §1

[14] = biological target: Gal(b1-3)[Neu5Ac(a2-6)]GlcNAc(b1-6)Gal(b1-4)Glc
Procedure, shortened: as §1

[15] = biological target: Gal(b1-3)[Neu5Ac(b2-6)]GalNAc
Procedure, shortened: as §1

[16] = biological target: Gal(b1-4)GalNAc(a1-3)[Fuc(a1-2)]Gal(b1-4)GlcNAc
Procedure, shortened: as §1

[17] = biological target: Gal(b1-4)GalNAc(b1-3)[Fuc(a1-2)]Gal(b1-4)GlcNAc
Procedure, shortened: as §1

Gal(b1-4)Glc = biological target: Gal(b1-4)Glc
Procedure, shortened: as §1

Gal(b1-4)Glc6S = biological target: Gal(b1-4)Glc6S
Procedure, shortened: as §1

Gal(b1-4)GlcNAc = biological target: Gal(b1-4)GlcNAc
Procedure, shortened: as §1

[18] = biological target: Gal(b1-4)GlcNAc(a1-6)Gal(b1-4)GlcNAc
Procedure, shortened: as §1

[19] = biological target: Gal(b1-4)GlcNAc(b1-2)Man(a1-3)[Gal(b1-4)GlcNAc(b1-2)Man(a1-6)]Man(b1-4)GlcNAc(b1-4)GlcNAc
Procedure, shortened: as §1

[20] = biological target: Gal(b1-4)GlcNAc(b1-3)Gal(b1-3)GlcNAc
Procedure, shortened: as §1

[21] = biological target: Gal(b1-4)GlcNAc(b1-3)Gal(b1-4)Glc
Procedure, shortened: as §1

[22] = biological target: Gal(b1-4)GlcNAc(b1-3)Gal(b1-4)GlcNAc
Procedure, shortened: as §1

[23] = biological target: Gal(b1-4)GlcNAc(b1-3)Gal(b1-4)GlcNAc(b1-3)Gal(b1-4)GlcNAc
Procedure, shortened: as §1

[24] = biological target: Gal(b1-4)GlcNAc(b1-3)Gal(b1-4)[Fuc(a1-3)]GlcNAc(b1-3)Gal(b1-4)[Fuc(a1-3)]GlcNAc
Procedure, shortened: as §1

[25] = biological target: Gal(b1-4)GlcNAc(b1-3)GalNAc
Procedure, shortened: as §1

[26] = biological target: Gal(b1-4)GlcNAc(b1-3)[Gal(b1-4)GlcNAc(b1-6)]Gal(b1-4)GlcNAc
Procedure, shortened: as §1

[27] = biological target: Gal(b1-4)GlcNAc(b1-3)[GlcNAc(b1-6)]Gal(b1-4)GlcNAc
Procedure, shortened: as §1

[28] = biological target: Gal(b1-4)GlcNAc(b1-6)Gal(b1-4)GlcNAc
Procedure, shortened: as §1

[29] = biological target: Gal(b1-4)GlcNAc(b1-6)Gal(b1-4)GlcNAc(b1-6)GalNAc
Procedure, shortened: as §1

[30] = biological target: Gal(b1-4)GlcNAc(b1-6)GalNAc
Procedure, shortened: as §1

[31] = biological target: Gal(b1-4)GlcNAc(b1-6)[Gal(b1-3)]GalNAc
Procedure, shortened: as §1

Gal3S(b1-3)GalNAc = biological target: Gal3S(b1-3)GalNAc
Procedure, shortened: as §1

Gal3S(b1-3)GlcNAc = biological target: Gal3S(b1-3)GlcNAc
Procedure, shortened: as §1

[32] = biological target: Gal3S(b1-3)[Fuc(a1-4)]GlcNAc
Procedure, shortened: as §1

Gal3S(b1-4)Glc = biological target: Gal3S(b1-4)Glc
Procedure, shortened: as §1

Gal3S(b1-4)Glc6S = biological target: Gal3S(b1-4)Glc6S
Procedure, shortened: as §1

Gal3S(b1-4)GlcNAc = biological target: Gal3S(b1-4)GlcNAc
Procedure, shortened: as §1

Gal3S(b1-4)GlcNAc6S = biological target: Gal3S(b1-4)GlcNAc6S
Procedure, shortened: as §1

[33] = biological target: Gal3S(b1-4)[Fuc(a1-3)]Glc
Procedure, shortened: as §1

Gal3S4S(b1-4)GlcNAc = biological target: Gal3S4S(b1-4)GlcNAc
Procedure, shortened: as §1

Gal3S6S(b1-4)GlcNAc = biological target: Gal3S6S(b1-4)GlcNAc
Procedure, shortened: as §1

Gal3S6S(b1-4)GlcNAc6S = biological target: Gal3S6S(b1-4)GlcNAc6S
Procedure, shortened: as §1

Gal4S(b1-4)GlcNAc = biological target: Gal4S(b1-4)GlcNAc
Procedure, shortened: as §1

Gal4S6S(b1-4)GlcNAc = biological target: Gal4S6S(b1-4)GlcNAc
Procedure, shortened: as §1

Gal6S(b1-4)Glc = biological target: Gal6S(b1-4)Glc
Procedure, shortened: as §1

Gal6S(b1-4)Glc6S = biological target: Gal6S(b1-4)Glc6S
Procedure, shortened: as §1

Gal6S(b1-4)GlcNAc = biological target: Gal6S(b1-4)GlcNAc
Procedure, shortened: as §1

Gal6S(b1-4)GlcNAc6S = biological target: Gal6S(b1-4)GlcNAc6S
Procedure, shortened: as §1

GalNAc(a1-3)Gal = biological target: GalNAc(a1-3)Gal
Procedure, shortened: as §1

GalNAc(a1-3)GalNAc = biological target: GalNAc(a1-3)GalNAc
Procedure, shortened: as §1

GalNAc(b1-3)Gal = biological target: GalNAc(b1-3)Gal
Procedure, shortened: as §1

[34] = biological target: GalNAc(b1-3)Gal(a1-4)Gal(b1-4)GlcNAc
Procedure, shortened: as §1

B1: Surfactant Protein D (Human); Neck + Carbohydrate Recognition Domain (NCRD) (Homo sapiens) (protein)
chain: MLLFLLSALVLLTQPLGYLEAEMKTYSHRTMPSACTLVMCSSVESGLPGRDRDGREGPRGEKGDPGLPGAAGQAGMPGQAGPVGPKGDNGSVGEPGPKGDTGPSGPPGPPGVPGPAGREGALGKQGNIGPQGKPGPKGEAGPKGEVGAPGMQGSAGARGLAGPKGERGVPGERGVPGNTGAAGSAGAMGPQGSPGARGPPGLKGDKGIPGDKGAKGESGLPDVASLRQQVEALQGQVQHLQAAFSQYKKVELFPNGQSVGEKIFKTAQFVKPFTEAQLLCTQAGGQLASPRSAAENAALQQLVVAKNEAAFLSMTDSKTEGKFTYPTGESLVYSNWAPGEPNDDGGSEDCVEIFTNGKWNDRACGEARLVVCEF
For B1, the “glycan array binding signal (z-score)” value (Gal(b1-2)Gal) was -0.167, the “glycan array binding signal (z-score)” value (Gal(b1-3)Gal) was -0.175 and the “glycan array binding signal (z-score)” value (Gal(b1-3)Gal(b1-4)GlcNAc) was -0.174. The “glycan array binding signal (z-score)” value (Gal(b1-3)GalNAc) was -0.174, the “glycan array binding signal (z-score)” value [1] was -0.165 and the “glycan array binding signal (z-score)” value [2] was -0.177. For the same binder, the “glycan array binding signal (z-score)” value [3] was -0.177, the “glycan array binding signal (z-score)” value (Gal(b1-3)GlcNAc) was -0.156 and the “glycan array binding signal (z-score)” value [4] was -0.178. For the same binder, the “glycan array binding signal (z-score)” value [5] was -0.161, the “glycan array binding signal (z-score)” value [6] was -0.166 and the “glycan array binding signal (z-score)” value [7] was -0.168. The “glycan array binding signal (z-score)” value [8] was -0.165, the “glycan array binding signal (z-score)” value [9] was -0.159 and the “glycan array binding signal (z-score)” value [10] was -0.17. The “glycan array binding signal (z-score)” value [11] was -0.152, the “glycan array binding signal (z-score)” value [12] was -0.15 and the “glycan array binding signal (z-score)” value [13] was -0.178. The “glycan array binding signal (z-score)” value [14] was -0.165, the “glycan array binding signal (z-score)” value [15] was -0.09 and the “glycan array binding signal (z-score)” value [16] was -0.175. The “glycan array binding signal (z-score)” value [17] was -0.135, the “glycan array binding signal (z-score)” value (Gal(b1-4)Glc) was -0.169 and the “glycan array binding signal (z-score)” value (Gal(b1-4)Glc6S) was -0.15. For the same binder, the “glycan array binding signal (z-score)” value (Gal(b1-4)GlcNAc) was -0.163, the “glycan array binding signal (z-score)” value [18] was -0.176 and the “glycan array binding signal (z-score)” value [19] was -0.164. For the same binder, the “glycan array binding signal (z-score)” value [20] was -0.172, the “glycan array binding signal (z-score)” value [21] was -0.157 and the “glycan array binding signal (z-score)” value [22] was -0.164. The “glycan array binding signal (z-score)” value [23] was -0.172, the “glycan array binding signal (z-score)” value [24] was -0.168 and the “glycan array binding signal (z-score)” value [25] was -0.15. For the same binder, the “glycan array binding signal (z-score)” value [26] was -0.175, the “glycan array binding signal (z-score)” value [27] was -0.161 and the “glycan array binding signal (z-score)” value [28] was -0.153. The “glycan array binding signal (z-score)” value [29] was -0.157, the “glycan array binding signal (z-score)” value [30] was -0.173 and the “glycan array binding signal (z-score)” value [31] was -0.158. For the same binder, the “glycan array binding signal (z-score)” value (Gal3S(b1-3)GalNAc) was -0.172, the “glycan array binding signal (z-score)” value (Gal3S(b1-3)GlcNAc) was -0.157 and the “glycan array binding signal (z-score)” value [32] was -0.174. For the same binder, the “glycan array binding signal (z-score)” value (Gal3S(b1-4)Glc) was -0.172, the “glycan array binding signal (z-score)” value (Gal3S(b1-4)Glc6S) was -0.163 and the “glycan array binding signal (z-score)” value (Gal3S(b1-4)GlcNAc) was -0.166. The “glycan array binding signal (z-score)” value (Gal3S(b1-4)GlcNAc6S) was -0.165, the “glycan array binding signal (z-score)” value [33] was -0.17 and the “glycan array binding signal (z-score)” value (Gal3S4S(b1-4)GlcNAc) was -0.156. The “glycan array binding signal (z-score)” value (Gal3S6S(b1-4)GlcNAc) was -0.181, the “glycan array binding signal (z-score)” value (Gal3S6S(b1-4)GlcNAc6S) was -0.169 and the “glycan array binding signal (z-score)” value (Gal4S(b1-4)GlcNAc) was -0.155. For the same binder, the “glycan array binding signal (z-score)” value (Gal4S6S(b1-4)GlcNAc) was -0.176, the “glycan array binding signal (z-score)” value (Gal6S(b1-4)Glc) was -0.17 and the “glycan array binding signal (z-score)” value (Gal6S(b1-4)Glc6S) was -0.171. For the same binder, the “glycan array binding signal (z-score)” value (Gal6S(b1-4)GlcNAc) was -0.163, the “glycan array binding signal (z-score)” value (Gal6S(b1-4)GlcNAc6S) was -0.146 and the “glycan array binding signal (z-score)” value (GalNAc(a1-3)Gal) was -0.105. For the same binder, the “glycan array binding signal (z-score)” value (GalNAc(a1-3)GalNAc) was -0.168, the “glycan array binding signal (z-score)” value (GalNAc(b1-3)Gal) was -0.161 and the “glycan array binding signal (z-score)” value [34] was -0.163.
